US12227500B2, “Substituted pyrrolo[2,3-b]pyridines for suppressing toxic endoplasmic reticulum stress” (THE TRUSTEES OF COLUMBIA UNIVERSITY IN THE CITY OF NEW YORK, priority 2018, dated 2025)
Square brackets hold non-standard residues; d marks the D form. Peptide text beside a SMILES is read from it. Nle = CCCC[C@H](N)C(=O)O

System: Hb9::GFP-hSOD1^G93A motor neurons
Settings: 7.5 μM CPA; best time point (24 or 48 hrs post CPA) and concentration tested

Compound | % rescue of CPA toxicity Cell death | % rescue of CPA toxicity Neurite growth
CCn1c2ccccc2c2cc(Nc3ccnc(NCCCN4CCOCC4)n3)ccc21 [Ehop-016] | −58.41% | −44.42%
C[C@H](CCC(=O)NCC(=O)O)[C@H]1CC[C@H]2[C@@H]3[C@H](O)C[C@@H]4C[C@H](O)CC[C@]4(C)[C@H]3CC[C@]12C [GCDCA] | 2.569% | 4.419%
C[C@H](CCC(=O)O)[C@H]1CC[C@H]2[C@@H]3C(=O)C[C@@H]4CC(=O)CC[C@]4(C)[C@H]3CC(=O)[C@]12C [dehydro-CA] | 12.32% | 53.85%
COS(=O)(=O)[O-].C[n+]1c2ccccc2nc2ccccc21 [Phenazine methosulfate] | −43.4% | −18.42%
C[S+]([O-])c1ccc(-c2nc(-c3ccc(F)cc3)c(-c3ccncc3)[nH]2)cc1 (stereo not shown) [SB203580] | 42.39% | –
CCOC(=O)C1=C(N)Oc2ccc(Cl)cc2C1C(C#N)C(=O)OCC (stereo not shown) [SC 79] | −12.66% | 24.68%
O=S(=O)(c1cccc2c(I)cccc12)N1CCCNCC1 [ML-7] | −16.02% | −14.01%
C[C@H](CCC(=O)O)[C@H]1CC[C@H]2[C@@H]3C[C@H](O)[C@@H]4C[C@H](O)CC[C@]4(C)[C@H]3CC[C@]12C [HDCA] | 10.18% | 22.26%
COc1ccc(O)c(C(C)(C)C)c1 [Butylated hydroxyanisole] | 1.355% | −0.9415%
CCCC[C@@H](C=O)NC(=O)[C@H](CC(C)C)NC(=O)[C@H](CC(C)C)NC(C)=O [Calpain inh. l] (Ac-Leu-Leu-[Nle]-aldehyde) | 6.328% | 3.561%
CC[C@H]1[C@@H](O)[C@@H]2[C@H](CC[C@]3(C)[C@@H]([C@H](C)CCC(=O)O)CC[C@@H]23)[C@@]2(C)CC[C@@H](O)C[C@@H]12 [Compound 6-Et-CDCA] | 9.986% | 38.18%
O=C(O)CCC/C=C\C[C@@H]1[C@@H](/C=C/[C@H](O)C2Cc3ccccc3C2)[C@@H](F)C[C@@H]1O [AL8810] | 1.258% | −2.055%
COc1ccc(S(=O)(=O)N(CCO)c2ccccc2CN(C)C/C=C/c2ccc(Cl)cc2)cc1 [KN-93] | −4.232% | −9.04%
CCn1c(-c2nonc2N)nc2cncc(CNC3CCNCC3)c21 [SB747651A] | 19.58% | 7.742%
CCOC(=O)c1c2c3c(cccc3[nH]c1=O)C(=O)c1ccccc1-2 [NQDI-1] | 38.84% | 14.23%
CCCCCCCCCCCCCC(=O)O[C@@H]1[C@@H](C)[C@@]2(O)[C@@H](C=C(CO)C[C@]3(O)C(=O)C(C)=C[C@@H]23)[C@@H]2C(C)(C)[C@]12OC(C)=O [Phorbol-12-Myristate-13-Ace] | 27.17% | 27.55%
CC(C)(C)c1ccc(C(=O)Nc2cn3cc(-n4ccnc4)ccc3n2)cc1.Cl.Cl [TC ASK 10] | −1.619% | −2.831%
CC1=NCC[C@@H](C(=O)O)N1 [Ectoine] | 5.031% | 4.253%
Cc1[nH]c2ccc(O)cc2c1CCN [2-metyl 5-hydroxy tryptamin] | 0.7672% | 3.779%
CCOC(=O)c1ccc(NC2CCCCC2)c(N)c1 [Ferrostatin-1] | 2.794% | −2.344%
O=C(/C=C/c1ccccc1)NC(NC(=S)Nc1cccc2cccnc12)C(Cl)(Cl)Cl (stereo not shown) [SAL] | −5.72% | −11.87%
Indirubin-3′-monoxime | 1.509% | −0.05103%
CC(C)C[C@@H](C=O)NC(=O)[C@@H](NS(=O)(=O)c1ccc(F)cc1)C(C)C [calpain inh. vi] | 9.878% | 3.897%
C[C@H](CCC(=O)NCCS(=O)(=O)O)[C@H]1CC[C@H]2[C@@H]3CC[C@@H]4C[C@H](O)CC[C@]4(C)[C@H]3CC[C@]12C [TLCA] | 18.97% | 64.49%
C[C@H](CCC(=O)O)[C@H]1CC[C@H]2[C@@H]3[C@@H](O)C[C@@H]4C[C@H](O)CC[C@]4(C)[C@H]3CC[C@]12C [UDCA] | 18.21% | 47.99%
